Key:
[1] = target: T1, NRP1-His (R&D Systems #3870-N1) (human, UniProt O14786-2 22-644); assay: SPR, Fc-HRS(2-60) immobilised, 50 nM NRP1 as analyte
T1 construct: not shown: His tag

[2] = target: T2, Rat NRP2-Fc-His (R&D Systems #567-N2) (rat, UniProt O35276 23-858, limits assumed); assay: SPR, Fc-HRS(2-60) immobilised, 50 nM rat NRP2 as analyte
T2 construct: not shown: Fc and His tag
T2 sequence (looked up): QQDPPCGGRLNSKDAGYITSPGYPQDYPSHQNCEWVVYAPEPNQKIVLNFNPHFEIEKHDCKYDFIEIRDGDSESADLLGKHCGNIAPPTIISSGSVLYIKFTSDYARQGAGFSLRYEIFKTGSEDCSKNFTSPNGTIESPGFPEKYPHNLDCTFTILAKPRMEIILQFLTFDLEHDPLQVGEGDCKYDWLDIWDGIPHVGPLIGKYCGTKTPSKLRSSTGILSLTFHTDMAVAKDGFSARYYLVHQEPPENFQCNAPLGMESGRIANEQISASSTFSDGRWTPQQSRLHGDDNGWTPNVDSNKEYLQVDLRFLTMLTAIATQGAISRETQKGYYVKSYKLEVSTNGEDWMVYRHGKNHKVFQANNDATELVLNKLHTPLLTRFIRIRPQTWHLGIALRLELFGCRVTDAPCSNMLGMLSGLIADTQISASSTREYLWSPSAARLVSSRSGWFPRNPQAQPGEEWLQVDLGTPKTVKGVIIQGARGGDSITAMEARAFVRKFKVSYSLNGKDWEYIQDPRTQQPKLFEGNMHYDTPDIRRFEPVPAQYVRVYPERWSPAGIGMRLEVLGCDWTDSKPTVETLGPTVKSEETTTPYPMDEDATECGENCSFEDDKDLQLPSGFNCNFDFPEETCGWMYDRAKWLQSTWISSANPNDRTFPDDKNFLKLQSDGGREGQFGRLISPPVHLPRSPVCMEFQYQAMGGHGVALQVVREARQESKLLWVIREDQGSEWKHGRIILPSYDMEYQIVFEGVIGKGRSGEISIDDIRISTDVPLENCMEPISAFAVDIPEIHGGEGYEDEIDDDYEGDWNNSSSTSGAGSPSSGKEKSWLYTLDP

[3] = target: T3, Human NRP2 Variant 2 NRP2a(17), NM_003872, expressed on cells (human, UniProt O60462 23-931); assay: Retrogenix cell microarray, human protein on fixed HEK293 cells, sequential incubation, AF647 anti-human IgG Fc detection, 20 ug/ml test protein
T3 construct: also called Neuropilin 2A; NRP2 (NM_003872.2)
Description: Primary hits (duplicate spots) were identified by analyzing fluorescence intensity in the AlexaFluor 647 and ZsGreen1 emission channels using the ImageQuant system, following standard fluorescent methodology. […] Additionally all vectors encoding all hits, plus control vectors, were spotted in duplicate on new slides, and used to reverse transfect human HEK293 cells as before.

[4] = target: T4, Mouse PLXNA1-His (R&D Systems #4309-PA) (mouse, UniProt P70206 28-1242, limits assumed); assay: SPR, Fc-HRS(2-60) immobilised, 50 nM mouse Plexin A1 as analyte
T4 construct: also called mouse Plexin A1; not shown: His tag

[5] = target: T5, NRP2a-GFP fusion protein on HEK293T cells (human, UniProt O60462 23-931); assay: immunofluorescence microscopy (IN Cell Analyzer) on fixed HEK293T cells overexpressing NRP2v2-GFP, GFP Bright gate; Fc-HRS(2-60) titrated in 2 fold steps, complexed with anti-Fc-PE
T5 construct: Transiently transfected HEK293T cells, fixed before staining; also called NRP2v2-GFP; cell-expressed NRP2a; not shown: GFP and any linker of the Origene clone
Procedure: Cell culture and transfection.
HEK293T cells previously transfected with NRP2v2-GFP were passed the night before staining to 96 well Greiner Clear flat bottomed Microplates pre-coated with collagen coating solution. Supernatants were removed and cells were washed 1 time with binding buffer. Cells were then fixed with 50 μL of 3.7% methanol-free formaldehyde for 20 minutes at room temperature. Cells were washed 2× with binding buffer and then blocked with 100 μL of blocking buffer for 1 hour at room temperature. The cells were then washed one time with binding buffer and then incubated with 50 μL of staining complex overnight at 4 degrees Celsius. […] The Hoechst stain was replaced with 1×PBS and subsequently read on an IN Cell Analyzer 2200. 20× images were acquired and analyzed using In Cell Analyzer 1000 Workstation software. Segmentation of the cell mask was achieved using the GFP channel, and the average PE signal intensity was determined within this mask above a threshold intensity of 5000 (termed GFP Bright cells).

B1: Fc-HRS(2-60) (Fc fusion)
chain: [letters of human IgG1 Fc omitted]AERAALEELVKLQGERVRGLKQQKASAELIEEEVAKLLKLKAQLGPDESKQKFVLKTPK
notes: also called HRS^FC1; Imod
binding result [1]: no binding (tested: 50 nM) | binding result [2]: binds | binding result [3]: binds | binding result [4]: no binding (tested: 50 nM) | binding result [5]: binds

Source: patent US20230039401A1 (ATYR PHARMA, published 2023)
